# Out of some 310,000 compounds screened, about 2,200 (0.71%) showed an effect of 50% or more. Effects have a minus sign here. The list shows a part of the results.
# Target: human ether-à-go-go-related gene (hERG) potassium channel (human, UniProt Q12809)
# Assay: primary screen, population patch clamp on CHO cells stably expressing hERG
# Chain of human ether-à-go-go-related gene (hERG) potassium channel (Q12809 whole entry, looked up): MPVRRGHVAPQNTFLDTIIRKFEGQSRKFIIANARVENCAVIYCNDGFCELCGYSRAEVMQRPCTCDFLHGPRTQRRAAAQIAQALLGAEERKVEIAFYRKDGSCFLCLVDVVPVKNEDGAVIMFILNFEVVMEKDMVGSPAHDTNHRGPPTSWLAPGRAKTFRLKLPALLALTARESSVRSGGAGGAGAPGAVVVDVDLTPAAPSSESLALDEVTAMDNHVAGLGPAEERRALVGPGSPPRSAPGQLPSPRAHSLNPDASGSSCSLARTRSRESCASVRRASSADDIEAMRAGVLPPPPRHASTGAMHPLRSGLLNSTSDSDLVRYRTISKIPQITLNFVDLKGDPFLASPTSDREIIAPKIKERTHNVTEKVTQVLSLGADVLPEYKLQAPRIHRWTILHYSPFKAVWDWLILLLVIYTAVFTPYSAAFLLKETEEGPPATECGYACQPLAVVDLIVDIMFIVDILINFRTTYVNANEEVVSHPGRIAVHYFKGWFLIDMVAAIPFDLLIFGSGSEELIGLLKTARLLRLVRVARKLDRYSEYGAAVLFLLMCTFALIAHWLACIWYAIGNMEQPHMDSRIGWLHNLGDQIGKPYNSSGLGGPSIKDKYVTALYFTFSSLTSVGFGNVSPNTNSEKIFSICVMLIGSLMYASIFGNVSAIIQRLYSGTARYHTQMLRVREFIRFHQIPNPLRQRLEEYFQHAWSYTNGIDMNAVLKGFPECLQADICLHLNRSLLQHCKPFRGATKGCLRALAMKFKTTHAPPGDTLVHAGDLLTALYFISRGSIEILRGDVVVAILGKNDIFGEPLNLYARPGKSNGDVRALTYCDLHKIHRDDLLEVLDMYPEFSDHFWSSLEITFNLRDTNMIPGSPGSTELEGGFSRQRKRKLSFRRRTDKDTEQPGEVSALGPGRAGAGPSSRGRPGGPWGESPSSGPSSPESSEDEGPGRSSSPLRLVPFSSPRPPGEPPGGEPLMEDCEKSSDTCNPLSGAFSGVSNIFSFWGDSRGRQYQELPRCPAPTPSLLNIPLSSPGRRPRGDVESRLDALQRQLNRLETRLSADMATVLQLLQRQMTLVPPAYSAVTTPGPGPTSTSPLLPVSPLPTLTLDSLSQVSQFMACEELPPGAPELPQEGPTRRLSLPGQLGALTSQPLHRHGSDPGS
row,Structure (SMILES),"hERG current change (%, negative = inhibition) at 1uM"
1,CCOC(=O)C1CCN(C(=O)NS(=O)(=O)c2ccc(C)cc2)CC1,7.63%
2,COc1ccccc1NC(=O)N1CCN(c2ccnc3cc(Cl)ccc23)CC1,-15.5%
3,CCn1cc(C(=O)OCC(=O)OC2CC(C)CCC2C(C)C)c(=O)c2ccc(C)nc21 (stereo not shown),-5.64%
4,CCC(C)[C@H](NC(=O)Nc1ccc(S(N)(=O)=O)cc1)C(=O)OC (stereo partly shown),15.3%
5,O=C(NCC1CCCO1)C1CCC(N2C(=O)c3ccccc3C2=O)CC1 (stereo not shown),5.06%
6,Cc1c(Cl)cccc1NC(=S)N1CCN(Cc2ccccc2)CC1,0.485%
7,O=C(COC(=O)c1cc(C(F)(F)F)cc(C(F)(F)F)c1)NCc1ccc(Cl)cc1,14.5%
8,COc1ccc2c(c1)-c1nc(N)sc1CC2,-4.24%
9,CC1(C)N=C(N)N=C(N)N1c1ccc(OCCCOc2ccccc2)c(Cl)c1.CCS(=O)(=O)O,6.51%
10,Nc1ccc(C(=O)OCc2ccncc2)cc1[N+](=O)[O-],-1.23%
11,O=c1oc(-c2ccccc2)cc(Cl)c1Cl,0.467%
12,CC(OC(=O)c1ccncc1)C(=O)Nc1cccc(Cl)c1 (stereo not shown),3.81%
13,CC1(C)Oc2ccc(C(=O)Nc3ccccc3F)cc2N(CC(=O)N2CCOCC2)C1=O,10.6%
14,Cn1cc(/C=C2\SC(=O)N(c3ccccc3)C2=O)c2ccccc21,8.84%
15,CCOC(=O)c1nn(-c2ccccc2C)c(=O)cc1OCC(=O)N1CCN(c2ccccc2)CC1,10%
16,CCOc1ccc(-n2c(SCC(=O)Nc3cc(C)on3)nc3c(c2=O)SCC3)cc1,14.6%
17,N#CCCn1c(SCC(=O)c2c[nH]c3ccccc23)nc2ccccc21,7.16%
18,CC(OC(=O)CNC(=O)C12CC3CC(CC(C3)C1)C2)C(=O)Nc1ncc(Cl)cc1Cl (stereo not shown),2.78%
19,CC(O)CCc1nc2ccc(C(=O)O)cc2[nH]1.Cl (stereo not shown),14.9%
20,CC1=NN(c2ccccc2)C(=O)/C1=C/C=C/c1ccccc1,5.79%
21,Cc1[nH]c(C)c(S(=O)(=O)N(Cc2ccccc2)C(C)(C)C)c1C(=O)N1CCCC1,5.26%
22,CC(=O)Nc1nc2c(c3c1c(=O)oc1ccccc13)CCCCC2,-1.87%

row,Structure (SMILES),"hERG current change (%, negative = inhibition) at 1uM"
1,O=C(CSc1nnnn1-c1ccccc1)Nc1ncc(Cc2cccc(Cl)c2Cl)s1,16%
2,C=CCOC(=O)C1=C(C)NC(C)=C(C(=O)OCC=C)C1c1ccc(O)cc1,-1.12%
3,O=[n+]1c2c(n([O-])c3c1CCC3)CCCC2,13.5%
4,CCOC(=O)C(CC)Sc1nnc2c3cc(C)ccc3n(C)c2n1 (stereo not shown),4.1%
5,O=C(CSc1nnc(COc2ccccc2)o1)N1CCCC1,5.08%
6,O=C(NCc1cccs1)C1CCN(S(=O)(=O)c2ccc(Cl)cc2)CC1,23.3%
7,Cc1cccc(N(C(=O)c2snc(C(N)=O)c2N)C(C(=O)NC2CCCC2)c2ccc(C)o2)c1 (stereo not shown),7.28%
8,CCOC(=O)c1sc(=NC(=O)c2cc(OC)c(OC)c(OC)c2)n(C)c1C,11.4%
9,O=C(NCc1ccc(F)cc1)C1CC(=O)N(Cc2ccco2)C1 (stereo not shown),-2.73%
10,N#CNC(=Nc1ccccc1)SCc1ccc(C(=O)O)cc1,7.67%
11,CSc1nc(Oc2cccc(C(F)(F)F)c2)cc(C(F)(F)F)n1,9.99%
12,COc1cccc(C(=O)N2CCOCC2)c1,20.5%
13,COc1ccc(S(=O)(=O)NCC(c2cccnc2)N2CCN(C)CC2)cc1C (stereo not shown),-24.4%
14,Cc1cc(Cl)ccc1NC(=O)C1COc2ccccc2O1 (stereo not shown),8.71%
15,CC(=O)NC1CC2CCCC(C1)N2S(=O)(=O)c1ccccc1 (stereo not shown),14.7%
16,CCOC(=O)CNC(=S)SC,7.2%
17,CC(Sc1nnc(CNC(=O)c2ccccc2F)n1C)C(=O)Nc1nccs1 (stereo not shown),17.1%
18,COc1ccc(C2=NOC(C(=O)Nc3ccc4c(c3)OCO4)C2)cc1OC (stereo not shown),5.15%
19,COc1cc2[nH]c(=O)n(-c3ccccc3)c(=O)c2cc1OC,13.9%
20,S=C(NCc1ccncc1)Nc1ccc(Cl)cc1Cl,8.64%
21,O=C(O)c1ccccc1N(Cc1ccccc1)C(=O)COc1ccccc1,8.18%

# Source: publication PMC4336329 (PLoS ONE, 2015)
